From ChEMBL document CHEMBL4888484, “Replenishing the malaria drug discovery pipeline: Screening and hit evaluation of the MMV Hit Generation Library 1 (HGL1) against asexual blood stage Plasmodium falciparum ,using a nano luciferase reporter read-out” (2022) come the findings set out here.

Among all 150,000 compounds or so, about 540 (0.36%) showed an effect of 50% or more. The list shows a part of the results.

In this assay the test system is Plasmodium falciparum. Kind of assay: Primary screen in NF54 nanoGlo assay, in single point, at 2uM, 72h; a lower Z score goes with more inhibition. It counts as functional, Erythrocyte. Particulars: timepoint 72 hour.
Broadly, the % Inhibition is the relative decrease from the control value, in per cent. For the compound `CC(=O)c1c([O-])n(-c2ccccc2)n[n+]1Cc1ccccc1`, the “% Inhibition” value was determined as 4% and the Z score is -0.56.

`Cc1ccc(CN(C)CCc2ccccn2)o1`: the “% Inhibition” value stood at 11% and the Z score is on record as -1.67.

Consider `CC(C)N(CC(=O)N(CCc1c[nH]c2ccccc12)Cc1ccc(N(C)C)cc1)C(=O)c1cc(C(F)(F)F)cc(C(F)(F)F)c1`, for which the “% Inhibition” value was 7% and the Z score is listed as -1.29.

For `O=C1[C@H]2[C@H](Cc3c[nH]c4ccc(O)cc34)N[C@@]3(C(=O)Nc4ccccc43)[C@H]2C(=O)N1c1ccccc1`, the “% Inhibition” value is 1% and the Z score is on record as -0.15.

As to `Cc1nscc1C(=O)OCC(=O)N1CCCC1`, the “% Inhibition” value worked out at 12% and the Z score is listed as -1.42.

Consider `Cc1oc2ccccc2c1CNC(=O)N1CCC(C)(C)C1`, for which the “% Inhibition” value was -1% and the Z score is given as 0.2.

Turning to `O=C(c1ccc(-c2ccccc2F)s1)N1CCO[C@H](c2ccccc2)C1`, the “% Inhibition” value is -1% and the Z score was determined as 0.12.

Consider `Cn1c(NC(=O)c2ccc(Br)cn2)nnc1C1CC1`, for which the “% Inhibition” value was -4% and the Z score is given as 0.41.

For `Cc1ccccc1N1C(=O)C2C(c3ccccc3)CCC(c3ccccc3)C2C1=O` (centres undefined), the “% Inhibition” value is listed as -20% and the Z score is 2.18.

`CC(O)(CC(=O)N1CC2CCC(O)CC2C1)C1CC1` (centres undefined): the “% Inhibition” value is reported as -36% and the Z score was found to be 4.23.

With `COc1ccc(N2CCN(Cc3cccn3-c3nnc(N4CCCCC4)s3)CC2)cc1`, the “% Inhibition” value is recorded as -5% and the Z score stood at 0.49.

As for `CO[C@@H](C(=O)N(C)Cc1cn(C)nc1C(C)C)c1ccccc1`, the “% Inhibition” value is recorded as -9% and the Z score came out at 1.23.

As to `Cc1cc(C)cc(OCC(=O)N[C@H](c2ccccc2)C2CC2)c1`, the “% Inhibition” value is listed as -14% and the Z score was 1.61.

`COc1ccc(CC(=O)Nc2ccc3nnn(CC(C)C)c(=O)c3c2)cc1`: the “% Inhibition” value is 12% and the Z score was -1.52.

With `C[C@@H](Cc1csc2ccccc12)NC(=O)Cc1c(F)cccc1Cl`, the “% Inhibition” value was determined as 6% and the Z score is -0.73.

For the compound `CC1CCN(C(=O)c2oc3ccccc3c2NC(=O)Cc2ccccc2)CC1`, the “% Inhibition” value amounted to 3% and the Z score is listed as -0.32.

Regarding `CCn1cncc1Cn1ccc(-c2cccc(-c3ccncc3)c2)n1`, the “% Inhibition” value was -9% and the Z score was determined as 1.1.

Regarding `Cc1nsc2ncc(C(=O)N3CCOCC3)c(N3CCC(C(=O)Nc4ccc(F)cc4Cl)CC3)c12`, the “% Inhibition” value is listed as 1% and the Z score was -0.13.

With `c1ccc(-c2nc(-c3ccccc3)c3c(n2)-c2ccccc2C3)cc1`, the “% Inhibition” value was 2% and the Z score is -0.28.

Take `CC(C)(C)CC(=O)NC[C@H]1OC[C@@H](N(Cc2cccs2)Cc2cccs2)[C@@H]1O`: the “% Inhibition” value came to 15% and the Z score is reported as -1.76.

As for `O=C(NCC1CCOC1)[C@H]1C[C@@H]1c1cccnc1` (some centres undefined), the “% Inhibition” value is listed as -13% and the Z score was 1.53.

With `Cc1c(NC(=O)Nc2ccc(Cl)c(Cl)c2)sc(=S)n1C`, the “% Inhibition” value is recorded as -2% and the Z score is reported as 0.43.

For `CCNC(=O)C[C@H]1CCCCN1C(=O)C1CCN(c2nc(C)cs2)CC1`, the “% Inhibition” value is listed as -7% and the Z score was determined as 1.25.

Regarding `CCCNC(=O)c1[nH]cnc1C(=O)N[C@H]1CCCCNC1=O`, the “% Inhibition” value is 3% and the Z score was -0.38.

For `CCCn1nc(C(=O)N(C)C)c2c1CC[C@H](O)C2`, the “% Inhibition” value was -18% and the Z score is recorded as 2.26.

Consider `O=C(NCCc1ccccc1)c1ccc2nc(-c3ccc(F)cc3)c(-c3ccc(F)cc3)nc2c1`, for which the “% Inhibition” value turned out to be 1% and the Z score was -0.09.

On to `CC#CCn1nnnc1Cc1ccc(OC)c(F)c1`, for which the “% Inhibition” value was 6% and the Z score is recorded as -0.7.

Consider `O=C(C1CCN(S(=O)(=O)c2ccc(Cl)cc2)CC1)N1CCCCCCC1`, for which the “% Inhibition” value is given as -12% and the Z score worked out at 2.44.

For `CNC(=O)N(C)CCc1noc(COc2cccc(C)c2)n1`, the “% Inhibition” value is -14% and the Z score came out at 1.42.

Turning to `Cc1ccc2nc(N(C)Cc3nc(-c4ccccn4)no3)sc2c1`, the “% Inhibition” value is 4% and the Z score is reported as -0.57.

`Cc1cc2n(n1)CCCN(Cc1cc3n(n1)CCN(c1cc(N)ncn1)C3)C2`: the “% Inhibition” value was -9% and the Z score is 1.38.

Turning to `CC(=Cc1ccccc1)CN(C)C(=O)C1CCS(=O)(=O)CC1`, the “% Inhibition” value was -1% and the Z score turned out to be 0.27.

In the case of `C[C@]1(NC(=O)CCc2c[nH]c3ccccc23)CCS(=O)(=O)C1`, the “% Inhibition” value came to 7% and the Z score is reported as -1.3.

With `COc1ccc(COC(=O)c2cccnc2C)cn1`, the “% Inhibition” value was 42% and the Z score is reported as -4.77.

For `Cc1cc(OC2CCN(C(=O)Cn3cc(-c4ccc(F)cc4)cn3)CC2)cc(=O)n1C`, the “% Inhibition” value was -2% and the Z score is given as 0.34.

Regarding `Cc1cc(C(=O)NCCN2CCC[C@H](C(N)=O)C2)c(-c2ccccc2)o1`, the “% Inhibition” value is listed as -5% and the Z score was 0.7.

`Cc1cc(Cn2nnc(C(=O)N[C@](C)(C(N)=O)C(C)C)c2C)on1`: the “% Inhibition” value was -1% and the Z score amounted to 0.17.

On to `CCCN(C(=O)c1cc(C)c(OC(F)F)c(C)c1)[C@H]1CCNC1`, for which the “% Inhibition” value was -14% and the Z score is on record as 1.44.

As to `COc1ccc(C(NC(=O)CCN2CCOCC2)[C@H]2C[C@@H](O)C2)cc1F` (some centres undefined), the “% Inhibition” value came out at 3% and the Z score is reported as -0.25.

Consider `O=C(NCCN1CCN(c2ccccc2F)CC1)[C@H]1CCCN(c2nc3ccc(Cl)cc3[nH]2)C1`, for which the “% Inhibition” value is listed as 1% and the Z score was -0.25.

As to `Cc1cc(NC(=O)c2ccc3ccccc3c2)n(-c2nc3c(c(=O)[nH]2)CCC3)n1`, the “% Inhibition” value is given as 2% and the Z score is -0.26.

Regarding `CCC(NC(=O)Cc1c(C)nn(C)c1C)C(O)c1ccccc1F` (centres undefined), the “% Inhibition” value was -7% and the Z score is recorded as 0.66.

As for `CCCc1cc(CN(C)C(=O)c2c(C)cc(C)[nH]c2=O)n[nH]1`, the “% Inhibition” value is given as -1% and the Z score is listed as 0.21.

As to `Cc1cc(C2CCC2)nc(N2CCn3nc([C@@H](O)C4CC4)cc3C2)n1`, the “% Inhibition” value is on record as -13% and the Z score came to 1.49.

Take `COc1ccc(NC(=O)n2nc(C(F)(F)F)nc2N)cc1`: the “% Inhibition” value is given as -14% and the Z score turned out to be 1.84.

On to `Fc1cccc(-c2ccnc(N[C@H]3CO[C@H]4[C@@H]3OC[C@H]4OCc3ccccc3)n2)c1`, for which the “% Inhibition” value is recorded as -12% and the Z score is reported as 1.52.

As for `CC1CCN(Cc2nnnn2CCCC(=O)NCc2scnc2-c2ccccc2)CC1`, the “% Inhibition” value is on record as -3% and the Z score worked out at 0.6.

In the case of `O=C(O)c1ccc(CN2CCC(Oc3ccc(F)cc3F)CC2)cc1`, the “% Inhibition” value is given as -17% and the Z score is 2.07.

In the case of `O=C([C@@H]1COCCO1)N1CCCc2c(F)ccc(F)c21`, the “% Inhibition” value is 2% and the Z score is reported as -0.38.

In the case of `O=C(CCc1ccc(-n2cnnc2)cc1)NC[C@@H]1CCCN2CCCC[C@H]12`, the “% Inhibition” value is -8% and the Z score worked out at 1.13.

With `Cn1c(=O)n(CC(=O)NCc2ccccc2F)c2cncnc21`, the “% Inhibition” value was -18% and the Z score was 1.85.

Turning to `CCN1C(=O)CCN(C(=O)c2ccnn2C)CC12CCOCC2`, the “% Inhibition” value was determined as 33% and the Z score was -0.31.
